Data from the supplement of paper PMC8728848.
The list shows a part of the results.

Key:
Assay in all cases: glycan array binding signal (z-score within array); higher = stronger binding
Conditions in all cases: glycan notation: IUPAC condensed, linker removed
[1] = target: Fuc(a1-2)[Gal(a1-3)]Gal(b1-4)[Fuc(a1-3)]Glc
Method in brief: (§1)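 Glycan array binding is given as a within-array Z-score, which can be read as non-binding when negative. The arrays, 3228 of them, came from the Consortium for Functional Glycomics database and were retained only where the protein sequence was available. Z-scores were averaged across arrays of the same protein sequence at different concentrations or buffers and across linkers.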

[2] = target: Fuc(a1-2)[Gal(a1-3)]Gal(b1-4)[Fuc(a1-3)]GlcNAc
Method in brief: as §1

[3] = target: Fuc(a1-2)[Gal(a1-3)]Gal(b1-4)[Fuc(a1-3)]GlcNAc(b1-3)GalNAc
Method in brief: as §1

[4] = target: Fuc(a1-2)[Gal(a1-4)]Gal(b1-4)GlcNAc
Method in brief: as §1

[5] = target: Fuc(a1-2)[GalNAc(a1-3)]Gal
Method in brief: as §1

[6] = target: Fuc(a1-2)[GalNAc(a1-3)]Gal(b1-3)GalNAc(a1-3)[Fuc(a1-2)]Gal(b1-4)GlcNAc
Method in brief: as §1

[7] = target: Fuc(a1-2)[GalNAc(a1-3)]Gal(b1-3)GlcNAc
Method in brief: as §1

[8] = target: Fuc(a1-2)[GalNAc(a1-3)]Gal(b1-3)GlcNAc(b1-2)Man(a1-3)[Fuc(a1-2)[GalNAc(a1-3)]Gal(b1-3)GlcNAc(b1-2)Man(a1-6)]Man(b1-4)GlcNAc(b1-4)GlcNAc
Method in brief: as §1

[9] = target: Fuc(a1-2)[GalNAc(a1-3)]Gal(b1-3)GlcNAc(b1-2)Man(a1-3)[Fuc(a1-2)[GalNAc(a1-3)]Gal(b1-3)GlcNAc(b1-2)Man(a1-6)]Man(b1-4)GlcNAc(b1-4)[Fuc(a1-6)]GlcNAc
Method in brief: as §1

[10] = target: Fuc(a1-2)[GalNAc(a1-3)]Gal(b1-3)GlcNAc(b1-3)GalNAc
Method in brief: as §1

[11] = target: Fuc(a1-2)[GalNAc(a1-3)]Gal(b1-3)GlcNAc(b1-6)GalNAc
Method in brief: as §1

[12] = target: Fuc(a1-2)[GalNAc(a1-3)]Gal(b1-4)Glc
Method in brief: as §1

[13] = target: Fuc(a1-2)[GalNAc(a1-3)]Gal(b1-4)GlcNAc
Method in brief: as §1

[14] = target: Fuc(a1-2)[GalNAc(a1-3)]Gal(b1-4)GlcNAc(b1-2)Man(a1-3)[Fuc(a1-2)[GalNAc(a1-3)]Gal(b1-4)GlcNAc(b1-2)Man(a1-6)]Man(b1-4)GlcNAc(b1-4)GlcNAc
Method in brief: as §1

[15] = target: Fuc(a1-2)[GalNAc(a1-3)]Gal(b1-4)GlcNAc(b1-2)Man(a1-3)[Fuc(a1-2)[GalNAc(a1-3)]Gal(b1-4)GlcNAc(b1-2)Man(a1-6)]Man(b1-4)GlcNAc(b1-4)[Fuc(a1-6)]GlcNAc
Method in brief: as §1

[16] = target: Fuc(a1-2)[GalNAc(a1-3)]Gal(b1-4)GlcNAc(b1-3)Gal(b1-4)GlcNAc
Method in brief: as §1

[17] = target: Fuc(a1-2)[GalNAc(a1-3)]Gal(b1-4)GlcNAc(b1-3)Gal(b1-4)GlcNAc(b1-3)Gal(b1-4)GlcNAc
Method in brief: as §1

[18] = target: Fuc(a1-2)[GalNAc(a1-3)]Gal(b1-4)GlcNAc(b1-3)GalNAc
Method in brief: as §1

[19] = target: Fuc(a1-2)[GalNAc(a1-3)]Gal(b1-4)[Fuc(a1-3)]GlcNAc
Method in brief: as §1

[20] = target: Fuc(a1-2)[GalNAc(a1-3)]Gal(b1-4)[Fuc(a1-3)]GlcNAc(b1-3)GalNAc
Method in brief: as §1

[21] = target: Fuc(a1-2)[GalNAc(a1-4)]Gal(b1-4)GlcNAc
Method in brief: as §1

[22] = target: Fuc(a1-2)[GalNAc(b1-3)]Gal
Method in brief: as §1

Fuc(a1-3)GlcNAc = target: Fuc(a1-3)GlcNAc
Method in brief: as §1

[23] = target: Fuc(a1-3)[Gal(b1-4)]Glc6S
Method in brief: as §1

[24] = target: Fuc(a1-3)[Gal(b1-4)]GlcNAc
Method in brief: as §1

[25] = target: Fuc(a1-3)[Gal(b1-4)]GlcNAc(b1-2)Man
Method in brief: as §1

[26] = target: Fuc(a1-3)[Gal(b1-4)]GlcNAc(b1-2)Man(a1-3)[Fuc(a1-3)[Gal(b1-4)]GlcNAc(b1-2)Man(a1-6)]Man(b1-4)GlcNAc(b1-4)GlcNAc
Method in brief: as §1

[27] = target: Fuc(a1-3)[Gal(b1-4)]GlcNAc(b1-2)Man(a1-3)[Fuc(a1-3)[Gal(b1-4)]GlcNAc(b1-2)Man(a1-6)]Man(b1-4)GlcNAc(b1-4)[Fuc(a1-6)]GlcNAc
Method in brief: as §1

[28] = target: Fuc(a1-3)[Gal(b1-4)]GlcNAc(b1-3)Gal(b1-3)[Fuc(a1-4)]GlcNAc
Method in brief: as §1

[29] = target: Fuc(a1-3)[Gal(b1-4)]GlcNAc(b1-3)GalNAc
Method in brief: as §1

[30] = target: Fuc(a1-3)[Gal(b1-4)]GlcNAc(b1-4)Gal(b1-4)[Fuc(a1-3)]GlcNAc
Method in brief: as §1

[31] = target: Fuc(a1-3)[Gal(b1-4)]GlcNAc(b1-4)Gal(b1-4)[Fuc(a1-3)]GlcNAc(b1-4)Gal(b1-4)[Fuc(a1-3)]GlcNAc
Method in brief: as §1

[32] = target: Fuc(a1-3)[Gal(b1-4)]GlcNAc(b1-6)GalNAc
Method in brief: as §1

[33] = target: Fuc(a1-3)[Gal(b1-4)]GlcNAc(b1-6)[Gal(b1-3)GlcNAc(b1-3)]Gal(b1-4)Glc
Method in brief: as §1

[34] = target: Fuc(a1-3)[Gal(b1-4)]GlcNAc(b1-6)[Neu5Ac(a2-3)Gal(b1-3)]GalNAc
Method in brief: as §1

[35] = target: Fuc(a1-3)[Gal(b1-4)]GlcNAc6S
Method in brief: as §1

[36] = target: Fuc(a1-3)[Gal3S(b1-4)]GlcNAc
Method in brief: as §1

[37] = target: Fuc(a1-3)[Gal3S(b1-4)]GlcNAc6S
Method in brief: as §1

[38] = target: Fuc(a1-3)[GalNAc(b1-4)]GlcNAc
Method in brief: as §1

[39] = target: Fuc(a1-3)[GalNAc(b1-4)]GlcNAc6S
Method in brief: as §1

[40] = target: Fuc(a1-3)[GalNAc3S(b1-4)]GlcNAc
Method in brief: as §1

Fuc(a1-4)GlcNAc = target: Fuc(a1-4)GlcNAc
Method in brief: as §1

Fuc(b1-3)GlcNAc = target: Fuc(b1-3)GlcNAc
Method in brief: as §1

Gal(a1-2)Gal = target: Gal(a1-2)Gal
Method in brief: as §1

Gal(a1-3)Gal = target: Gal(a1-3)Gal
Method in brief: as §1

B1: CIH1 (Colletotrichum higginsianum) (protein)
chain: LPQATPTTPTPTSASAAATISATSSPTCSPGPVIDYTVVSGDTLTIISQRFSSGICNIADASGITNPNFLSLGQVLQVPTYVCTPDNTSCLAKEGSDTCVEGGPATHTIVAGDTFFLVAQSLGLDVNALLAANEGVDPLLLQIGDVINIPVC
glycan array binding signal (z-score) [1]: -0.086 | glycan array binding signal (z-score) [2]: -0.09 | glycan array binding signal (z-score) [3]: -0.044 | glycan array binding signal (z-score) [4]: -0.061 | glycan array binding signal (z-score) [5]: -0.076 | glycan array binding signal (z-score) [6]: -0.095 | glycan array binding signal (z-score) [7]: -0.079 | glycan array binding signal (z-score) [8]: -0.052 | glycan array binding signal (z-score) [9]: -0.031 | glycan array binding signal (z-score) [10]: -0.081 | glycan array binding signal (z-score) [11]: -0.039 | glycan array binding signal (z-score) [12]: -0.065 | glycan array binding signal (z-score) [13]: -0.071 | glycan array binding signal (z-score) [14]: -0.074 | glycan array binding signal (z-score) [15]: -0.079 | glycan array binding signal (z-score) [16]: -0.074 | glycan array binding signal (z-score) [17]: -0.053 | glycan array binding signal (z-score) [18]: -0.026 | glycan array binding signal (z-score) [19]: -0.07 | glycan array binding signal (z-score) [20]: -0.073 | glycan array binding signal (z-score) [21]: -0.071 | glycan array binding signal (z-score) [22]: -0.093 | glycan array binding signal (z-score) (Fuc(a1-3)GlcNAc): -0.046 | glycan array binding signal (z-score) [23]: -0.072 | glycan array binding signal (z-score) [24]: -0.083 | glycan array binding signal (z-score) [25]: -0.06 | glycan array binding signal (z-score) [26]: -0.079 | glycan array binding signal (z-score) [27]: -0.072 | glycan array binding signal (z-score) [28]: -0.049 | glycan array binding signal (z-score) [29]: -0.067 | glycan array binding signal (z-score) [30]: -0.084 | glycan array binding signal (z-score) [31]: -0.08 | glycan array binding signal (z-score) [32]: -0.066 | glycan array binding signal (z-score) [33]: -0.069 | glycan array binding signal (z-score) [34]: -0.072 | glycan array binding signal (z-score) [35]: -0.057 | glycan array binding signal (z-score) [36]: -0.065 | glycan array binding signal (z-score) [37]: -0.056 | glycan array binding signal (z-score) [38]: -0.064 | glycan array binding signal (z-score) [39]: -0.038 | glycan array binding signal (z-score) [40]: -0.054 | glycan array binding signal (z-score) (Fuc(a1-4)GlcNAc): -0.051 | glycan array binding signal (z-score) (Fuc(b1-3)GlcNAc): -0.079 | glycan array binding signal (z-score) (Gal(a1-2)Gal): -0.046 | glycan array binding signal (z-score) (Gal(a1-3)Gal): -0.084
